# From the supplement of paper PMC7826260
# Some of the results follow. The data describe in vitro nicking of single-stranded DNA by Rep domains (3 µM enzyme, 1 h, 37 °C); shown is the middle of each 90-letter strand. Numbers give uncut DNA relative to the enzyme-free pool, as log2; the lower, the more was cut; hits are not called. Reads are scaled to the total; uncut strands gain when others are lost, and binding without cutting may add a little.
# Legend:
# Assay in all cases: uncleaved DNA left, log2 of reads against the no-enzyme library (log2 ratio); higher = less cleavage (more negative = more Rep cleavage of the k-mer); sequences stand for … in CTCGTCCG…ACCGGAGA
# [1] = system: T1, Rep nickase domain of Muscovy duck circovirus
# T1 sequence (residues 1-111, tag not shown): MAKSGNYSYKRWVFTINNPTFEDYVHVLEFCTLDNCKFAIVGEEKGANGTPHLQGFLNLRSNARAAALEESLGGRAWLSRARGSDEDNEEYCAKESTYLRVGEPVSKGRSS
# Method: (§1)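 A pool of 90-nt single-stranded DNAs with seven random bases just before the constant AC of the nick site (name = the seven bases) was cut by 3 µM recombinant His6-SUMO-tagged Rep nickase domain (300 nM DNA, 50 mM HEPES pH 8.0, 50 mM NaCl, 1 mM MnCl2, 1 h, 37 °C, three replicates). Uncut DNA was amplified and sequenced.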
# [2] = system: T2, Rep nickase domain of banana bunchy top virus
# T2 sequence (residues 1-94, tag not shown): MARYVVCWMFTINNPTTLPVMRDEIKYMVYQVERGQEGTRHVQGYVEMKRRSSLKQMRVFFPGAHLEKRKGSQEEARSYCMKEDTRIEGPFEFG
# Method: as §1
# [3] = system: T3, Rep nickase domain of cabbage leaf curl virus
# T3 sequence (residues 1-116, tag not shown): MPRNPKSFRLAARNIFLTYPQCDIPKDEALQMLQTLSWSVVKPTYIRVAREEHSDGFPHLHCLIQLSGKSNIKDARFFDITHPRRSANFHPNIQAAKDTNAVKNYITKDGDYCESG
# Method: as §1
# [4] = system: T4, Rep nickase domain of chickpea chlorotic dwarf virus
# T4 sequence (residues 1-124, tag not shown): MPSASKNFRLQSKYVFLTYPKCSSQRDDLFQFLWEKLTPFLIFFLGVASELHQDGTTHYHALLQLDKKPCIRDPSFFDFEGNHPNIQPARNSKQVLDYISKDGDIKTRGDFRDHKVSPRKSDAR
# Method: as §1
# [5] = system: T5, Rep nickase domain of faba bean necrotic yellows virus
# T5 sequence (residues 1-98, tag not shown): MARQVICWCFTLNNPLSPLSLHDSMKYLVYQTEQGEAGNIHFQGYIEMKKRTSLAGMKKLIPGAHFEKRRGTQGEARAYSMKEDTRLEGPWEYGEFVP
# Method: as §1
# [6] = system: T6, Rep nickase domain of maize striate mosaic virus
# T6 sequence (residues 1-117, tag not shown): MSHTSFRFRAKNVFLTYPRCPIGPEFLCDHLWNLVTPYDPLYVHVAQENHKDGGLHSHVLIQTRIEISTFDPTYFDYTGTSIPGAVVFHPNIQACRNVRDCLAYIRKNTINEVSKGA
# Method: as §1
# [7] = system: T7, Rep nickase domain of porcine circovirus 2
# T7 sequence (residues 2-116, tag not shown): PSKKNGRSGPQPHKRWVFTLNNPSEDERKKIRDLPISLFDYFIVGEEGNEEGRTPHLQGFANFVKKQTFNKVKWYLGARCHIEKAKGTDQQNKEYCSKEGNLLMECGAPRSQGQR
# Method: as §1
# [8] = system: T8, Rep nickase domain of tomato golden mosaic virus
# T8 sequence (residues 1-124, tag not shown): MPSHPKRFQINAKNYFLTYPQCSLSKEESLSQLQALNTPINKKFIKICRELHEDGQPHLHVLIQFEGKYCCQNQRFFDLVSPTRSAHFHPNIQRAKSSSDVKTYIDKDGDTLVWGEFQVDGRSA
# Method: as §1
# [9] = system: T9, Rep nickase domain of tomato yellow leaf curl virus
# T9 sequence (residues 1-136, tag not shown): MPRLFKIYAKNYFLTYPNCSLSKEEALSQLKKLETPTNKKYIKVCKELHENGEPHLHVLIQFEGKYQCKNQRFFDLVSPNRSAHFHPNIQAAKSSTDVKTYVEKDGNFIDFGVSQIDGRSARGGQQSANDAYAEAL
# Method: as §1
# [10] = system: T10, Rep nickase domain of wheat dwarf virus
# T10 sequence (residues 1-137, tag not shown): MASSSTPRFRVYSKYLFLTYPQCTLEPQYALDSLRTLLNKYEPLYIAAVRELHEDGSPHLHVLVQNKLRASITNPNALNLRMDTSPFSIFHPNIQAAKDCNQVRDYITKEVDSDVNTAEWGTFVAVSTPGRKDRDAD
# Method: as §1
Sequence,uncleaved DNA left (log2) [1],uncleaved DNA left (log2) [2],uncleaved DNA left (log2) [3],uncleaved DNA left (log2) [4],uncleaved DNA left (log2) [5],uncleaved DNA left (log2) [6],uncleaved DNA left (log2) [7],uncleaved DNA left (log2) [8],uncleaved DNA left (log2) [9],uncleaved DNA left (log2) [10]
TTTGAAT,-0.0214,-0.0328,0.0597,-0.428,0.00337,-0.233,-0.211,-0.132,-0.0546,-0.0572
CTAGGCA,-0.0686,0.0198,0.0207,0.107,0.0629,-0.507,0.0608,0.0407,-0.0106,-0.0593
ACATACA,-0.0559,-0.0327,-0.258,-1.89,0.0528,-0.848,-0.0366,0.0383,-0.12,-0.0643
ACTGTGC,-0.0418,-0.0643,-0.657,-0.684,-0.136,-1.26,-0.0389,-0.0249,0.0147,-0.0565
TGCGGCA,0.0165,-0.00829,-0.131,0.0556,-0.0415,-0.247,0.0208,0.0261,0.00895,-0.0265
TCTATCT,0.0108,-0.00476,0.0372,-1.79,0.0394,-0.374,-0.63,0.0461,0.0518,0.0573
TCTGGCT,0.0778,-0.00357,-0.246,-0.701,0.0603,-0.537,0.0442,0.0103,-0.0229,-0.00992
ACGTTGA,0.0486,0.0674,-0.144,-0.226,-0.034,-0.743,0.201,0.0569,-0.0588,0.0268
GCTGCCA,-0.111,0.0698,0.0278,0.175,-0.0623,0.325,0.0583,0.0465,-0.0411,-0.0451
GAAGCAA,0.025,0.00655,0.221,0.669,0.0764,0.596,0.0579,0.0922,0.0447,0.00146
ACTTCTC,-0.00498,-0.0247,-0.171,-0.27,0.0511,-0.647,0.13,0.00334,-0.0493,0.0881
CCTAAAA,-0.146,-0.0427,-0.174,-0.124,-0.112,-0.839,-0.0548,-0.13,-0.128,-0.0661
GTCACGT,0.078,0.128,0.375,0.824,0.0176,1.16,0.167,0.138,0.177,0.168
AAGTCAC,0.0591,0.065,-0.121,-0.662,0.00365,-0.425,-2.95,-0.0162,0.0292,0.0459
TGGAACA,-0.0733,0.0456,0.642,1.06,-0.0758,1.83,0.0955,-0.057,0.0579,0.0262
TGGTCCC,0.00715,0.117,0.323,0.684,-0.0397,1.35,-0.0357,-0.116,0.0471,-0.0197
CCAGTAC,0.034,0.0297,-0.0583,-0.615,-0.0477,-0.671,-0.0245,0.0382,-0.0752,-0.0817
CTTGTCG,0.0815,0.0174,-0.902,-0.473,-0.13,-1.06,0.168,-0.121,-0.0105,-0.0254
ACGGACT,-0.0165,-0.122,0.122,-0.105,-0.0817,0.76,-0.0467,0.00809,-0.0906,-0.058
GAAAGCA,-0.0044,-0.0265,-0.0736,-0.737,-0.0387,-0.374,-0.104,-0.0342,-0.0375,-0.0046
TTGGGTC,-0.016,0.0293,0.454,0.721,0.0183,0.771,0.0995,-0.0746,0.0989,0.0599
CTTGGTC,-0.0954,-0.135,-0.0447,-0.0968,-0.182,-0.967,-0.0826,-0.232,-0.215,-0.172
GGTTAAT,-0.193,0.136,0.547,1.48,0.0135,2.01,-1.17,-0.0105,0.105,0.132
GCGACTA,-0.146,0.099,0.113,0.728,-0.0424,1.7,0.107,-0.00459,-0.146,0.00508
AATCATC,0.0379,0.0673,0.0143,-0.364,-0.0254,-0.746,0.0857,-0.027,0.00438,0.0827
ATGCTAG,-0.0527,-0.0148,-0.643,-0.52,-0.026,-1.13,0.204,0.00344,0.0165,-0.0764
AAACCTA,0.048,0.0895,-0.116,-2.46,0.0341,-0.571,-0.615,-0.00257,0.053,0.0197
AGACAGG,0.104,0.00747,0.187,0.855,0.00982,0.337,0.248,0.187,0.0245,0.0525
CTGCTGC,0.0141,-0.0378,-0.15,-0.0378,0.145,-0.353,0.271,-0.023,0.000186,0.0394
ATTCCAT,-0.0959,-0.0263,0.0816,-0.61,0.0738,-0.472,-0.834,0.0231,0.0018,0.148
